Assay results reported in the supplement of paper PMC9174493.
The list shows a part of the results. Single values of this set are uncertain. Values with irradiation are relative to irradiated vehicle.

Each compound was assayed on A549-Dual (assay: NF-kB reporter (SEAP) activity, viability-corrected, relative to vehicle (fold change vs vehicle); higher = more activation of STING-IRF / NF-kB immune response reporter). Conditions: 10 µM; irradiation: 8 Gy/4 fr.
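Further: viability correction based on the alamar blue assay, with concentrations leaving 10% survival or less dropped.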

SMILES | NF-kB reporter
O=C(O)C(=O)c1ccccc1 [Phenylglyoxylic acid] | 1.09
O=C(O)c1c[nH]c2ccccc12 [Indole-3-carboxylic acid] | 0.857
N=C(N)c1ccc(OCCCCCOc2ccc(C(=N)N)cc2)cc1.O=S(=O)(O)CCO.O=S(=O)(O)CCO [Pentamidine isethionate] | 0.312
C=CC1=C(C(=O)O)N2C(=O)C(NC(=O)/C(=N\OCC(=O)O)c3csc(N)n3)C2SC1 (stereo not drawn) [Cefixime] | 0.81
O=c1[nH]c(=O)n(C2CC(O)C(CO)O2)cc1/C=C/Br (stereo not drawn) [Brivudine] | 0.808
CC1=CC(=O)C2CC1C2(C)C (single isomer, unassigned; (-)) [(-)-Verbenone] | 0.825
OB1OCc2cc(F)ccc21 [Tavaborole (AN-2690)] | 0.895
O=c1cc[nH]c(=S)[nH]1 [2-Thiouracil] | 0.799
CCOCCn1c(N2CCCN(C)CC2)nc2ccccc21.O=C(O)/C=C/C(=O)O.O=C(O)/C=C/C(=O)O [Emedastine Difumarate] | 1.08
CCCS(=O)c1ccc2nc(NC(=O)OC)[nH]c2c1 (stereo not drawn) [Albendazole Oxide] | 0.826
CC(Cc1ccc(O)c(O)c1)C(C)Cc1ccc(O)c(O)c1 (stereo not drawn) [Nordihydroguaiaretic acid (NDGA)] | 0.775
COc1cc2c(cc1OC)C1Cc3ccc(OC)c(OC)c3CN1CC2.Cl (stereo not drawn) [Tetrahydropalmatine hydrochloride] | 0.75
C#CC1(O)CCC2C3CCC4=CC(=O)CCC4C3CCC21CC (stereo not drawn) [Levonorgestrel] | 0.735
CCCCC(=O)N(Cc1ccc(-c2ccccc2-c2nn[nH]n2)cc1)C(C(=O)O)C(C)C (stereo not drawn) [Valsartan] | 0.71
OCC(O)COc1ccc(Cl)cc1 (stereo not drawn) [Chlorphenesin] | 0.647
CCCNC(C)C(=O)Nc1ccccc1C.Cl (stereo not drawn) [Prilocaine hydrochloride] | 0.541
C[n+]1ccccc1/C=N/O.[Cl-] [Pralidoxime chloride] | 0.781
O=c1[nH]c2ccccc2n1CCN1CCN(c2cccc(C(F)(F)F)c2)CC1 [Flibanserin] | 0.443
O=C1c2cccc(O)c2C(=O)c2c(O)cccc21 [Danthron] | 0.772
CC12CCC(C1)C(C)(C)C2=O (single isomer, unassigned; (-)) [(-)-Fenchone] | 0.622
C[N+](C)(C)CCO.Cn1c(=O)c2[n-]cnc2n(C)c1=O [Oxtriphylline] | 0.749
COC(=O)C1CC2=CC(=O)CCC2(C)C23OC2CC2(C)C(CCC24CCC(=O)O4)C13 (stereo not drawn) [Eplerenone] | 0.741
O=C(NCCO[N+](=O)[O-])c1cccnc1 [Nicorandil] | 0.837
CC1CN(CC(Cc2ccccc2)C(=O)NCC(=O)O)CCC1(C)c1cccc(O)c1.O.O (stereo not drawn) [Alvimopan dihydrate] | 0.655
CCN1CCCC1CNC(=O)c1cc(S(=O)(=O)CC)c(N)cc1OC (stereo not drawn) [Amisulpride] | 0.932
CC(O)C1C(=O)N2C(C(=O)O)=C(SC3CNC(CNS(N)(=O)=O)C3)C(C)C12 (stereo not drawn) [Doripenem] | 0.948
NC(=O)N/N=C/c1ccc([N+](=O)[O-])o1 [Nitrofural] | 0.538
Cc1ccc(NC(=O)C2(c3ccc4c(c3)OC(F)(F)O4)CC2)nc1-c1cccc(C(=O)O)c1 [VX-809 (Lumacaftor)] | 0.719
